# Reference: PMC12136788
# Some of the results follow.
# B1: chr17:65740002:65740003:+_ENSG00000130935_ENST00000581375|hu_hu|hu_hu_hu_mus_False|78_78 (ssRNA)
# RNA: GGGAGUUCUACAGUCCGACGAUCAACAAAUCUUUCUUCCCUGGACGAACAGGAAGACAUAAAAGAGAAAAAAUAUAUAUCCAUCAAGUUAGGUGUGGUGGCCACACCUUUACUCCCAGCACUUUGGGAGGUGGAUCUCUGAGUCAACAGAGGAUUGAGCAUCA
# B2: chr13:97419175:97419176:-_ENSMUSG00000021670_ENSMUST00000022176|mus_mus|motif|central (ssRNA)
# RNA: GGGAGUUCUACAGUCCGACGAUCUGAAACUUUACAUACAACAGCAAAGGCAAUCUUCCACAAUAAUACUGACACAAUCACGGAGAGGCUCCCAUGCUGCCGCGGCACUCUUGGAAUGUCUUUCAGAGUCCAUCUUCUACACAACAACAGAGGAUUGAGCAUCA
# B3: chr1:217782781:217782782:-_ENSG00000092978_ENST00000366934|hu_hu|motif|central (ssRNA)
# RNA: GGGAGUUCUACAGUCCGACGAUCUUUUGAUGUGUUUCAGGUAUCAGACAAAGCAGAUAAUUUAAAAGGUAAAUGAUUCGGCGGGUGCAGACUAGUUAUCACUGUGGCUAAUUUAAAACGAGGAUGAUUUUUGCAGUACAAUGACAACAGAGGAUUGAGCAUCA
# B4: 95091120_95091240_1271_3pUTR_ENSG00000164292_ENST00000379982|human|control|control (ssRNA)
# RNA: GGGAGUUCUACAGUCCGACGAUCAGAGAACGAUCUUGUGGGCCUCUACAACUUUCUUUAAAUUGGGGUUGUAAAAUACCACGUCCACACACUGGCAGCAGAACAGCAAGUUAUUUAAGUCAGAGUUAUAAUGUGACGCUUCAGCAACAGAGGAUUGAGCAUCA
# B5: 75855418_75855538_1702_CDS_ENSG00000035403_ENST00000372755|human|control|control (ssRNA)
# RNA: GGGAGUUCUACAGUCCGACGAUCAGCCAGCUGGGCUGUCAGCUGGUCCACUCGGUCACACUUGGCGAGAAGAUCUUGCCGAUAAGGCCCCAUCAUAACAUUAGCCAGACGAUGCCCUUCGGCCACAAGCCCCCGGAUGGCAGCCAACAGAGGAUUGAGCAUCA
# B6: 65113432_65113740_929_CDS_ENSG00000133884_ENST00000252268|human|control|control (ssRNA)
# RNA: GGGAGUUCUACAGUCCGACGAUCAAAUUGGAGGCAAGAUGGAUGCCCUGAGCGGCCACAGUCAGAACAGGACACCAGCUCCUCGGGUUGUCCCGUCUUCUUGUUAAUCUUUGAGUCCCCCAGGCAGAAGUCACAGUAGUUGUUCAACAGAGGAUUGAGCAUCA
# B7: chr7:80921385:80921386:+_ENSMUSG00000078670_ENSMUST00000107456|mus_hu|FALSE|FALSE (ssRNA)
# RNA: GGGAGUUCUACAGUCCGACGAUCAGGCGAAACUGCCUUCCUGGCAGGCGGAGGCUGCCGAGCUCCCAUGCCCCUUCCCACAUAUCCCAACUCUUCUCAGAAAACUGAAGAACCGAAGAUGGAGGUGAGUCAGGAAAGGCUGGACAACAGAGGAUUGAGCAUCA
# B8: 72668181_72680867_410_3pUTR_ENSMUSG00000031201_ENSMUST00000033544|mouse|control|control (ssRNA)
# RNA: GGGAGUUCUACAGUCCGACGAUCUAUGAGGGUGGGAAUGAUACCAGCCAACAACUCUCAUGGGACGACCUGUUAGUUCAGCCAACCUUUCUGCCUCUGUUGAAGCUGCAGACAGCUGCUCUGGAGAAAUUUCUACACGGUCCUCAACAGAGGAUUGAGCAUCA
# B9: chr14:62153831:62153832:-_ENSMUSG00000021930_ENSMUST00000100496|mus_hu|FALSE|FALSE (ssRNA)
# RNA: GGGAGUUCUACAGUCCGACGAUCCCCAAAUGCUUAUUUUCAUUUCACAAAACAUAAAGUAUUUUAAAUCACAACUUCAGGGUGGUAUACUGAAUACAUUGGUUCCUUAGACAGCAUCAACAAGCAUAUUUUUAAGAAUAUAUUCAACAGAGGAUUGAGCAUCA
# B10: chr11:87794976:87794977:-_ENSMUSG00000020483_ENSMUST00000020775|perfect_dup|motif|central (ssRNA)
# RNA: GGGAGUUCUACAGUCCGACGAUCGCAACGCCGCCUGCUUGCCAUCGCUGCCGCCGCCACGGACACCUUCGCCUCGGCCACCGGGCCCGACUUGAAGAGGAGGAUUGCAACUUGACCCAAGUAAAAAUAGAUGAAGUGCUUUGUCAACAGAGGAUUGAGCAUCA
# B11: 56458844_56458964_4621_CDS_ENSG00000151914_ENST00000244364|human|control|control (ssRNA)
# RNA: GGGAGUUCUACAGUCCGACGAUCAUGCACUUUCAGUUCCUUCAUGUUCUUUUGCAGUUUCUCUUUUUCUUCAGGAGAGAGAUACUGACCCUGUUUCUCAAGCAACACUUGUGCAGACUGAGUGGCUAUGAUCACUGCUUGGUGCAACAGAGGAUUGAGCAUCA
# B12: chr7:97326020:97326021:+_ENSMUSG00000039361_ENSMUST00000049537|mus_mus|FALSE|FALSE (ssRNA)
# RNA: GGGAGUUCUACAGUCCGACGAUCGGUUGGCUGCUGCAAGUCAAGCAGGUCAUUUGGCAGCUUAGAUGUGCUGUUAGAAGAACUAGGGGUAGAAAAUAUGUCAAUGGCUGGUGCAGUCAUUAUUCCCCCUGCUGAGGUGGACACCAACAGAGGAUUGAGCAUCA
# B13: chr14:89307221:89307222:+_ENSG00000165533_ENST00000346301|hu_mus|hu_hu_hu_mus_False|58_78 (ssRNA)
# RNA: GGGAGUUCUACAGUCCGACGAUCUCCUGUUUGGUUAGUGCCAGGGAGCUUCAAAGACGUUCCAGGGCGUGGGACCUGAGCUAUAGCAUUUUCAUCCAGGAUCAUUUCAGCAAUUCCUUCCUGGUCCACAUCAAUUUCAUCUAUCAACAGAGGAUUGAGCAUCA
# B14: chr7:127792870:127792871:+_ENSMUSG00000030884_ENSMUST00000033176|mus_hu|motif|central (ssRNA)
# RNA: GGGAGUUCUACAGUCCGACGAUCUGUGAAAUGGUUCUGAACGAAGUAAUGUAACUCCUCUGAUGUCACUUUUCCAAUCCGGUAGUCAGGACAAUACAAGGGAUUAGCCAAGGCAUUCCGGUAAGCUGCUGCAUGCAAAUUUUCCAACAGAGGAUUGAGCAUCA
# B15: chr16:8992458:8992459:-_ENSG00000187555_ENST00000381886|hu_hu|motif|central (ssRNA)
# RNA: GGGAGUUCUACAGUCCGACGAUCUUGUCUAGGCUUGAAGAACUGUAGAAGAUCUCUUAAAGUACCUUCAUAAUUAUGUCGGAGAGGAUUACCUGGGCCAUCCCUAUAACCUUGAGACUUGAAAAACUGCAGCAACAUUGGAUCCAACAGAGGAUUGAGCAUCA
# B16: 88679131_88681301_1668_3pUTR_ENSG00000107779_ENST00000372037|human|control|control (ssRNA)
# RNA: GGGAGUUCUACAGUCCGACGAUCGGGCACAUCAACUUCAUUUGUGUCACUGUUGAAUUUAACAGCAAGGCCCAGGUCAGCAAUGCAGCAACUCCCAUUUUUCUUGAUGAGGAUGUUUUUGCUCUUUAGGUCUCGAUGAGCAAUCAACAGAGGAUUGAGCAUCA
# B17: chrX:98862621:98862622:+_ENSMUSG00000034160_ENSMUST00000044475|mus_hu|FALSE|FALSE (ssRNA)
# RNA: GGGAGUUCUACAGUCCGACGAUCCUGCAUCUCCUUUAGAGUGUUUCCCAUAUUAGAGUAGGCAUCAGCAAAGGUAGGACUGAUUCGAAUAGCCUCCUUAUAAUGCAUCAGAGCUUCCUGCAGUUUUCCCUGCUGCUGCAGUACCAACAGAGGAUUGAGCAUCA
# B18: 72874030_72877353_3546_CDS_ENSG00000009954_ENST00000339594|human|control|control (ssRNA)
# RNA: GGGAGUUCUACAGUCCGACGAUCUUUCUCUAAUGAAAUGACCCGGGCUUCAAAUUCUGAUGUUUCUUCCACAUAUCCAAGUCCUCCUUUUUGUAACCUUGUUGCAACUUCAAUGAGAUCACUACGAAGGAAGUUUAAAAGCUCCAACAGAGGAUUGAGCAUCA
# B19: chr16:94664741:94664742:+_ENSMUSG00000040785_ENSMUST00000117648|mus_hu|mus_mus_mus_hu_False|28_28 (ssRNA)
# RNA: GGGAGUUCUACAGUCCGACGAUCUGGUACUGAUCUUGGUAGCUGAUAUUCAGGAGAAAGGCUGGCCAAGGGUGUAUAUAUGCUGGUGUACUGGGGCAAACCUGGUACCAUGUUAAUGUAUGCUGGCGGUGUCUGGGUGAUAUCCAACAGAGGAUUGAGCAUCA
# B20: chrX:140365796:140365797:-_ENSMUSG00000031285_ENSMUST00000033642|mus_mus|mus_mus_mus_hu_False|28_98 (ssRNA)
# RNA: GGGAGUUCUACAGUCCGACGAUCCUUCUCAUUACUCAAUGCCUGCAAGGUUCUGGUUCGGUAGAAGCUACAGUGGGCGCUGUGAGUGGGGCUAGGCAACCCAUUCAUCCGUGACCCUCGCAUGUUCCUGGAUGUCUUAUCUCUCAACAGAGGAUUGAGCAUCA
# B21: chr6:86328614:86328615:-_ENSG00000135316_ENST00000355238|hu_mus|FALSE|FALSE (ssRNA)
# RNA: GGGAGUUCUACAGUCCGACGAUCCUGAGCUUUUCUUUCUUUCCUCUUCUGAUCUGGUGGCUUAGCAAAAACAAUUUCAAUAUUUUCUCCCUCCAAGUCUUUACCAUUCAUUUCUUCCAUAGCCUUGACAGCACCAUCUCUCUCCAACAGAGGAUUGAGCAUCA
# B22: chr11:50626376:50626377:-_ENSMUSG00000044807_ENSMUST00000109135|mus_mus|motif|central (ssRNA)
# RNA: GGGAGUUCUACAGUCCGACGAUCUCAGAGCUGAAGACCUCGAUUCUUAAAAGGUUAUAAAUUAAAAGUUUCUCUGAUUCGGAAAUGCAAACAGGUUCAUAGCAGGAGACUCUUGUUAACAAUGGCCUUCUACAAUACGUAAUACAACAGAGGAUUGAGCAUCA
# Target: T1, UNK ZnF1-3 (human, UniProt Q9C0B0 31-174)
# T1 sequence: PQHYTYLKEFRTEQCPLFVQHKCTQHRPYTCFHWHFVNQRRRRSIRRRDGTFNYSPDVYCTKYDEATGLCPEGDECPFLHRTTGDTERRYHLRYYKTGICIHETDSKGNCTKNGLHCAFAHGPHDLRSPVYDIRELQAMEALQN
# Test: nsRBNS (natural sequence RNA bind-n-seq); RBNS binding buffer (assumed for nsRBNS): 25 mM Tris pH 7.5, 150 mM KCl, 3 mM MgCl2, 0.01% Triton X-100, 500 ug/ml BSA, 20 U/ml SUPERase-In, 4 C; UNK is unkempt and MSI1 is Musashi-1; names of the RNAs are library labels; protein concentration not given here; high values mean tight binding
row,Binder,binding signal [enrichment R]
1,B1,0.913
2,B2,0.999
3,B3,1.8
4,B4,1.51
5,B5,0.831
6,B6,0.884
7,B7,0.854
8,B8,1.19
9,B9,1.5
10,B10,1.82
11,B11,0.602
12,B12,1.07
13,B13,0.828
14,B14,1.18
15,B15,1.9
16,B16,0.876
17,B17,1.12
18,B18,1.22
19,B19,1.05
20,B20,0.767
21,B21,0.799
22,B22,1.68
